One test has as its system Human primary T cells. The test can be described thus: In vitro antigen-independent expansion of T cells transduced with constitutive or ACZ-regulated mbIL15 constructs (cell numbers by flow cytometry). The test is classed as cell-based. The note with it: T cells expressing constitutive construct, no ACZ, in 10 days. Here is the method: T cells were thawed, cells were washed and counted. T cells were mixed with CD3/CD28 beads (Invitrogen cat#11141D) at 3:1 bead to T cell ratio. 5×10^5 cells/well were added to 24-well plates in 500 μL media. Cells were activated for 24 hrs. Next day, lentivirus was thawed and added to each well at different volumes. After 24 hrs, 500 μL of fresh media was added to wells, and cells were expanded by adding equal volume of fresh media every 2-3 days to keep cell density at 0.5-1×10^6/mL. Cells were analyzed by flow cytometry to confirm expression on day 5 or 6. Cells were expanded for 9-10 days.
After T cell transduction and expansion, CD3/CD28 beads were removed using magnets, cells were washed twice, resuspended in fresh media and counted. Cells were plated in 12-well plates at 1×10^6 in 2 mL. One well of untransduced cells was cultured in the presence of 2 ng/mL IL15 as a control. T cells expressing regulated constructs were cultured in the absence or presence of acetazolamide (ACZ, 30, 10, 3, 1, 0.3 μM). Cell numbers were monitored by flow cytometry every 3-4 days and cells were cultured for 10-12 days. At each time point 100 μL of cells were collected from wells and analyzed by flow cytometry. Cells were split as needed. […] Volumes for each well were recorded before and after split to calculate final volume in cell number assessment. […]
T cell numbers were determined by flow cytometry. […]
On the technique in general: A flow cytometer gives signals particle by particle.

A further test has as its system T cells. Description: IL15 expression on T cells in vivo on day 25 (IL15Ra-Fc staining, flow cytometry). Set-up: species or system NSG mice. Conditions: day 25, constitutive constructs. Here is the method: Human primary T cells capable of expressing constitutive mbIL15 or ACZ-regulated mbIL15 were prepared in accordance with methods described in Example 1 above. After T cell transduction and expansion, CD3/CD28 beads were removed using magnets, cells were washed twice, resuspended in fresh media and counted. T cells were mixed with expanded NK cells and each animal received 5×10^6 T cells and 2×10^6 expanded NK cells. Cells were infused by intravenous injections into NSG mice. Animals infused with T cells expressing regulated constructs were dosed daily with 200 mg/kg ACZ or vehicle by PO injections. Every 3-4 days, 50 μL blood was analyzed by flow cytometry for presence of T cells and NK cells using antibodies against mouse and human CD45, CD3 and CD56. IL15 expression on day 25 was analyzed using IL15Ra-Fc and fluorochrome conjugated anti-human IgG antibody.
IL15 expression on T cells in vivo on day 25 was analyzed by flow cytometry (FIG. 5C). T cells transduced with constitutive constructs IL15-292 and IL15-294 expressed high levels of IL15 (82% and 61%). IL15 expression was <1.5% in vehicle-treated IL15-293 and IL15-295 as well as EV groups. IL15 expression levels were 11% and 9% on T cells transduced with IL15-293 and IL15-295 in groups treated with ACZ.

B1: IL15-294: constitutive mbIL15 construct with altered B7-1 cytoplasmic tail (AA SEQ ID NO: 26) (protein)
chain: MDMRVPAQLLGLLLLWLSGARC[gap - about 120 residues]GSGSGSGSGSGSGSGSGSGSGSGSGSGSGSKQEHFPDNLLPSWAITLISVNGIFVICCLTYCFAPRCRERARNERLRRETVRPVGS
B1: in the test with Human primary T cells, the T cell expansion is given as 21 fold. Besides, in the test with T cells, the “IL15 expression on T cells” value was 61%.

These data come from US11058725B2, “CA2 compositions and methods for tunable regulation” (Obsidian Therapeutics, Inc., priority 2019, dated 2021).
